Source: PMC4336329 (PLoS ONE, 2015)
Out of some 310,000 compounds screened, about 2,200 (0.71%) showed an effect of 50% or more. The effect is printed as a negative number. Some of the results follow.

target: human ether-à-go-go-related gene (hERG) potassium channel (human, UniProt Q12809); assay: primary screen, population patch clamp on CHO cells stably expressing hERG
Sequence (Q12809 whole entry, looked up): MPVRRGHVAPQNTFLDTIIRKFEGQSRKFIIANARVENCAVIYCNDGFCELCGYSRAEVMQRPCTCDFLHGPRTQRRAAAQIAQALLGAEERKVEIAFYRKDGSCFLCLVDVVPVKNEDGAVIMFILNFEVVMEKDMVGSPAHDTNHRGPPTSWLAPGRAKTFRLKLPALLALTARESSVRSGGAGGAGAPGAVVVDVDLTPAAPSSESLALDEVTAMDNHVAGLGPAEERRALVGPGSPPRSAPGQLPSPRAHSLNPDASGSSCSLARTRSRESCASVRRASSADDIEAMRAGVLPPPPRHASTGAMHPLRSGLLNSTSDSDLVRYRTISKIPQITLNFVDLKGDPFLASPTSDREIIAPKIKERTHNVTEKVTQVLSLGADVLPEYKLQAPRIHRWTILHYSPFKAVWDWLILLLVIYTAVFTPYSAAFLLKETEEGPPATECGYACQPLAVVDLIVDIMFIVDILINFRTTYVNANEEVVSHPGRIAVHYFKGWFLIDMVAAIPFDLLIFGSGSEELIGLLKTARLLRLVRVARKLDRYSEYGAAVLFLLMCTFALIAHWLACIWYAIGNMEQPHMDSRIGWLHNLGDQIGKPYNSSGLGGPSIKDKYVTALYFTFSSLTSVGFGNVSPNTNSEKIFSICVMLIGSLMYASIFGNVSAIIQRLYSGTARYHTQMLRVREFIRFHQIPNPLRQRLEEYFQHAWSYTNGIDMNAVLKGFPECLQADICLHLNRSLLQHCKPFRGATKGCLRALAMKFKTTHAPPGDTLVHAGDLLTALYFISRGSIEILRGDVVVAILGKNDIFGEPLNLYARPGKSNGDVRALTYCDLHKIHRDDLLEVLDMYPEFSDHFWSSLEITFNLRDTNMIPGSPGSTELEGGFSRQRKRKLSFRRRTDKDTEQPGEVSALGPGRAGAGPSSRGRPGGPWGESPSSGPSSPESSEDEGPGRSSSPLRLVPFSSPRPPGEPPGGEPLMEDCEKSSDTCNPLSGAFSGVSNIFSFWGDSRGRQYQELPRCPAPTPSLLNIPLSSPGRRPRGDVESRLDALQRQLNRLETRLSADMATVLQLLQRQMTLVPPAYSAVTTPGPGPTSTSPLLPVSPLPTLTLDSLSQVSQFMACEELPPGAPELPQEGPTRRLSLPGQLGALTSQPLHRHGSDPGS

Row | Compound | hERG current change (%, negative = inhibition) at 1uM
1 | CCOC(=O)C1(Cc2ccc(OC)cc2)CCN(C(=O)c2cccc3nccnc23)CC1 | 2.3%
2 | Cc1nc2ccc(NC(=O)Cc3cccs3)cc2s1 | 15.8%
3 | CC1CC(C)CN(CC(O)COCCOc2ccc(Br)cc2)C1.Cl (stereo not drawn) | -32.3%
4 | COC(=O)c1sccc1-c1ccc(C(N)=O)o1 | 12.4%
5 | Cc1cc(NC(=O)c2ccc(-c3ccc(F)c(Cl)c3)o2)no1 | 3.14%
6 | CC(C)(C)c1nnc(NC(=O)Cc2ccccc2[N+](=O)[O-])s1 | -5.93%
7 | O=C(Cn1cnc2c(nnn2Cc2ccccc2)c1=O)c1ccccc1 | -1.44%
8 | N#CCC(CNc1ncc(C(F)(F)F)cc1Cl)OC(=O)c1cccc([N+](=O)[O-])c1 (stereo not drawn) | -21%
9 | O=C(CC1C(=O)NCCN1C(=O)Nc1ccc(F)cc1F)Nc1cc(Cl)ccc1Cl (stereo not drawn) | 2.43%
10 | CCOC(=O)N1CCN(C(=O)CN2C(=O)NC(C)(c3ccc4ccccc4c3)C2=O)CC1 (stereo not drawn) | -0.366%
11 | Cc1cn(CCOc2ccc(Cl)cc2)c(=O)[nH]c1=O | 12.6%
12 | O=C(O)c1c2c(nc3ccc(S(=O)(=O)N4CCC(C(=O)NCc5ccccc5Cl)CC4)cc13)CCCC2 | 8.46%
13 | COc1ccc(C(CC(=O)NCCN2CCOCC2)NS(=O)(=O)c2ccc(C)cc2)cc1 (stereo not drawn) | 11.7%
14 | CCOC(=O)N1CCN(C(=O)c2ccc3c(c2)NC(=O)/C(=C/c2ccccc2)S3)CC1 | 38.8%
15 | Cc1ccc(S(=O)(=O)N(Cc2ccccc2)Cc2ccco2)cc1 | 10.7%
16 | CCc1nn(C(CC)C(=O)NCc2cccc(OC)c2)c(=O)c2cc3occc3n12 (stereo not drawn) | 6.54%
17 | CCc1noc(C)c1C(=O)NCCc1ccc(Cl)cc1 | 14%
18 | N#Cc1ccccc1OCC(=O)Nc1ccc(N2CCOCC2)cc1N1CCOCC1 | 8.66%
19 | CCc1cc2c(-c3ccccc3)cc(=O)oc2cc1OCC(=O)NCC1CCC(C(=O)O)CC1 (stereo not drawn) | 14.6%
20 | Nc1nc2c(F)c(F)c(F)cc2s1 | 1.74%
21 | Cc1ccc(C)c(NC(=S)Nc2cccnc2)c1 | 7%
22 | CCCc1ccc(-c2cc(C(=O)N3CCN(c4ccccn4)CC3)c3ccccc3n2)cc1 | 13.3%
23 | CCCOc1ccccc1NC(=O)/C=C/C(N)=O | 11.2%
24 | CC1CN=C(Nc2cccc3ccccc23)S1 (stereo not drawn) | 6.56%
